PMC8482806, “A Novel Blood-Brain Barrier-Permeable Chemotherapeutic Agent for the Treatment of Glioblastoma” (Cureus, 2021)
This continues a long series; more values of the same kind are listed elsewhere.

Experiment: [14C]-QBS10072S distribution by quantitative whole-body autoradiography in mice with intracranial LN229 tumors
Format: in vivo, mouse
Settings: 5 mg/kg IV
Procedure: Athymic mice with intracranial implanted LN229 cells received a single IV dose of 5 mg/kg and 200 μCi/kg [14C]-QBS10072S into the tail vein using the formulation described above. Animals (one per time point) were sacrificed one, eight, and 24 hours post-dose, and frozen in a hexane/solid carbon dioxide bath for at least 10 minutes. The carcasses were processed as described for quantitative whole-body autoradiography. Briefly, sagittal sections (~ 40 μm thick) were cut using a microtome, mounted, and exposed to a [14C]-sensitive phosphor imaging plate for four days. The images were scanned and quantitated by image densitometry using MCID image analysis software. The concentrations of radioactivity were expressed as the μg equivalents of test article per gram sample (μg equiv/g). The upper and lower limits of quantification were 550 and 0.008 μg equiv/g, respectively (QPS, Newark, DE).

SMILES: Cc1ccc(N(CCCl)C[14CH2]Cl)cc1C[C@H](N)CC(=O)O.Cl.Cl [[14C]-QBS10072S, [chloroethyl-2-14C]-QBS10072S×2HCl]
- Tissue Concentration (Bile (in gall bladder), 1 h): 3.649 µg equiv/g tissue
- Tissue Concentration (Bile (in gall bladder), 8 h): 2.006 µg equiv/g tissue
- Tissue Concentration (Bile (in gall bladder), 24 h): 0.564 µg equiv/g tissue
- Tissue Concentration (Bone Marrow, 1 h): 1.320 µg equiv/g tissue
- Tissue Concentration (Bone Marrow, 8 h): 0.386 µg equiv/g tissue
- Tissue Concentration (Bone Marrow, 24 h): 0.520 µg equiv/g tissue
- Tissue Concentration (Eye (lens), 1 h): 0.078 µg equiv/g tissue
- Tissue Concentration (Eye (lens), 8 h): 0.023 µg equiv/g tissue
- Tissue Concentration (Eye (lens), 24 h): 0.013 µg equiv/g tissue
- Tissue Concentration (Eye (uvea), 1 h): 0.692 µg equiv/g tissue
- Tissue Concentration (Eye (uvea), 8 h): 0.277 µg equiv/g tissue
- Tissue Concentration (Eye (uvea), 24 h): 0.166 µg equiv/g tissue
- Tissue Concentration (Kidney (cortex), 1 h): 5.848 µg equiv/g tissue
- Tissue Concentration (Kidney (cortex), 8 h): 1.272 µg equiv/g tissue
- Tissue Concentration (Kidney (cortex), 24 h): 1.077 µg equiv/g tissue
- Tissue Concentration (Kidney (inner medulla), 1 h): 3.704 µg equiv/g tissue
- Tissue Concentration (Kidney (inner medulla), 8 h): 0.498 µg equiv/g tissue
- Tissue Concentration (Kidney (inner medulla), 24 h): 0.458 µg equiv/g tissue
- Tissue Concentration (Large Intestine (contents), 1 h): 4.090 µg equiv/g tissue
- Tissue Concentration (Large Intestine (contents), 8 h): 147.823 µg equiv/g tissue
- Tissue Concentration (Large Intestine (contents), 24 h): 19.396 µg equiv/g tissue
- Tissue Concentration (Large Intestine, 8 h): 0.594 µg equiv/g tissue
- Tissue Concentration (Large Intestine, 24 h): 0.511 µg equiv/g tissue
- Tissue Concentration (Lymph Node, 1 h): 1.670 µg equiv/g tissue
- Tissue Concentration (Lymph Node, 8 h): 0.481 µg equiv/g tissue
- Tissue Concentration (Lymph Node, 24 h): 0.354 µg equiv/g tissue
- Tissue Concentration (Oral Mucosa, 1 h): 0.900 µg equiv/g tissue
- Tissue Concentration (Oral Mucosa, 8 h): 0.399 µg equiv/g tissue
- Tissue Concentration (Oral Mucosa, 24 h): 0.390 µg equiv/g tissue
- Tissue Concentration (Small Intestine (contents), 1 h): 65.367 µg equiv/g tissue
- Tissue Concentration (Small Intestine (contents), 8 h): 1.429 µg equiv/g tissue
- Tissue Concentration (Small Intestine (contents), 24 h): 3.802 µg equiv/g tissue
- Tissue Concentration (Small Intestine, 1 h): 4.374 µg equiv/g tissue
- Tissue Concentration (Small Intestine, 8 h): 0.760 µg equiv/g tissue
- Tissue Concentration (Small Intestine, 24 h): 0.355 µg equiv/g tissue
- Tissue Concentration (Spleen, 1 h): 1.625 µg equiv/g tissue
- Tissue Concentration (Spleen, 8 h): 0.370 µg equiv/g tissue
- Tissue Concentration (Spleen, 24 h): 0.503 µg equiv/g tissue
- Tissue Concentration (Stomach (contents), 1 h): 0.160 µg equiv/g tissue
- Tissue Concentration (Stomach (contents), 8 h): 0.405 µg equiv/g tissue
- Tissue Concentration (Stomach (contents), 24 h): 4.882 µg equiv/g tissue
- Tissue Concentration (Stomach (gastric mucosa), 1 h): 1.066 µg equiv/g tissue
- Tissue Concentration (Stomach (gastric mucosa), 8 h): 0.591 µg equiv/g tissue
- Tissue Concentration (Stomach (gastric mucosa), 24 h): 0.565 µg equiv/g tissue
